According to PubChem BioAssay (NCI):
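Following 48 hours of exposure in 96-well plates, responses at five concentrations were used to interpolate endpoints linearly. The concentration for 50% growth inhibition is given as GI50. Definition used: TGI = concentration required for complete inhibition of growth.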

tested on: NCI-H322M lung; assay: DTP human tumour cell line panel, 48 h

Compound	GI50	TGI
CN1CCN(Cc2ccc(NC(=O)c3cncc(C#Cc4cnc5ccc(O[C@H]6CCOC6)nn45)c3)cc2C(F)(F)F)CC1	441 nM	1540 nM
O=c1nc(Nc2ccc([N+](=O)[O-])cc2O)sc2ccccc12	7230 nM	> 16700 nM
CC1=C(CCC=NNC(N)=O)C2=C(C)C3(CC3)[C@@](C)(O)C(=O)C2=C1	346 nM	1970 nM
